Test results taken from the RNAGym collection of RNA variant scans (doi:10.1093/nar/gkz1192).
Read counts are not given, so values of variants with three or more changes are uncertain.

B1: CPEB3 Ribozyme (parent)
chain: UAACAGGGGGCCACAGCAGAAGCGUUCACGUCGCAGCCCCUGUCAGAUUCUGGUGAAUCUGCGAAUUCUGCUGUAUAUCUC

Variants of: B1
Assay: self-cleavage, relative activity (ratio to wild type); higher = more cleavage; in vitro, sequencing
Procedure, shortened: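 CPEB3 self-cleaving ribozyme mutant libraries were made by rounds of error-prone PCR, barcoded, and transcribed in vitro with T7 RNA polymerase for 5 hours at 37°C. Cleavage occurred during transcription and a 15 min DNase I step before EDTA stop. RNAs were reverse transcribed with template switching and Illumina-sequenced, with DNA sequencing mapping barcodes to variants. Relative activity is the variant's cleaved/total read fraction divided by wild type's (minimum 5 reads), averaged across three batches.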

| Variant | self-cleavage |
| --- | --- |
| A28G U49C G73A | 0.21 |
| A28G U49C U51C U67C U69A | 0.04 |
| A28G U49C U60A U78C | 0.05 |
| A28G U49C U60C U76C | 0.15 |
| A28G U49C U72G U76A | 0.07 |
| A28G U49C U74C | 0.35 |
| A28G U49G U66C | 0.07 |
| A28G U51A A64U | 0.15 |
| A28G U51A U54C A56U U69C | 0.17 |
| A28G U51A U54C U67A | 0.11 |
| A28G U51A U80C | 0.74 |
| A28G U51C A75U | 0.92 |
| A28G U51C G61A U72A | 0.21 |
| A28G U51C U54A A57G | 0.62 |
| A28G U51C U54C A64U U72A | 0.14 |
| A28G U51C U76A U78C | 0.4 |
| A28G U51C U80A | 0.76 |
| A28G U54A U60A | 0.24 |
| A28G U54C A56U | 0.17 |
| A28G U54C A57G | 0.25 |
| A28G U54C A65G U69A | 0.15 |
| A28G U54C G55C U74C | 0.35 |
| A28G U54C U58C | 0.1 |
| A28G U54C U67C | 0.14 |

| Variant | self-cleavage |
| --- | --- |
| A28G U54C U78C U80A | 0.68 |
| A28G U54G U69C | 0.13 |
| A28G U58C A77G U78C | 0.13 |
| A28G U58C U72C A77G | 0.08 |
| A28G U58C U80C | 0.22 |
| A28G U60A U67G | 0.1 |
| A28G U67A U78A | 0.25 |
| A28G U67C C68A | 0.17 |
| A28G U67C U72G | 0.13 |
| A28G U67C U76C | 0.15 |
| A28G U67C U80C | 0.37 |
| A28G U69C A77G | 0.19 |
| A28G U69C U76C | 0.29 |
| A28G U72C A75G | 0.64 |
| A28G U72G U76A | 0.44 |
| A28G U74C U80C | 1.01 |
| A28G U78C U80G | 0.81 |
| A28U A35C A57G A75U U78C | 0.41 |
| A28U A35G A45U U60A | 1.29 |
| A28U A35G A47U A56G A77C | 0.23 |
| A28U A35G A64G U69G U78C | 0.29 |
| A28U A35G U43C A47G U60A | 0.22 |
| A28U A35G U48A G55U U67C | 0.1 |
| A28U A35G U60A | 0.93 |

| Variant | self-cleavage |
| --- | --- |
| A28U A35U A57G U67C A77G | 0.11 |
| A28U A35U U49C A56G A57G | 0.15 |
| A28U A45C A56G U60A C71G A77U | 0.06 |
| A28U A45C A65G | 0.16 |
| A28U A45G A77U | 0.57 |
| A28U A45G U54C A75U | 0.44 |
| A28U A45G U58C | 0.16 |
| A28U A45U A65G U69C U74C | 0.12 |
| A28U A45U C50A A65G U66C | 0.14 |
| A28U A47G A57G | 0.26 |
| A28U A47G C71A | 0.23 |
| A28U A47G G53C A56G | 0.45 |
| A28U A47U U72C U74A | 0.28 |
| A28U A56G A57G A65G | 0.14 |
| A28U A56U A77U U78A | 0.5 |
| A28U A57C U67A U69C | 0.1 |
| A28U A57G U69A | 0.17 |
| A28U A57G U80A | 0.67 |
| A28U A64G U67A U72C | 0.16 |
| A28U A65G U72C U78C | 0.27 |
| A28U A77G U80C | 0.9 |
| A28U A77U U80C | 1.13 |
| A28U C32A C50U U72A | 0.08 |
| A28U C32G A45G U48A U58C U69C | 0.09 |

| Variant | self-cleavage |
| --- | --- |
| A28U C32G A56G U76C | 0.08 |
| A28U C32U A35U U72C | 0.05 |
| A28U C32U A47U U78A | 0.04 |
| A28U C32U U51G U76A | 0.17 |
| A28U C32U U60G | 0.08 |
| A28U C34A U51A U60A | 0 |
| A28U C37A U80C | 0.3 |
| A28U C37U A45U | 0.18 |
| A28U C37U U48C U51A U60G | 0.07 |
| A28U C38A A45U A47G A56G U76A C81U | 0.25 |
| A28U C38A U54C U72G | 0.24 |
| A28U C38G A45G C50U U51A U69A | 0.16 |
| A28U C38G G52C A75U | 0.14 |
| A28U C38U A45G U80C | 0.5 |
| A28U C38U U51C U80C C81U | 0.76 |
| A28U C39A U60C | 0.15 |
| A28U C39G U41C C62U | 0.19 |
| A28U C39U A45G U67C U74G A75G | 0.06 |
| A28U C40A A45G U60C | 0.12 |
| A28U C40A U48C A57G U78C | 0.08 |
| A28U C40U U43C A56G | 0.12 |
| A28U C40U U48C | 0.21 |
| A28U G30A U41C U60C C68U | 0.08 |
| A28U G30C C32U G70C U74A | 0.11 |

| Variant | self-cleavage |
| --- | --- |
| A28U G33U C37U | 0.14 |
| A28U G33U U80A C81U | 0.02 |
| A28U G36A A57U A64G A77G | 0.05 |
| A28U G36U U58A | 0.07 |
| A28U G52A G61U U72C | 0.54 |
| A28U G52A U69A | 0.41 |
| A28U G52C G53U U54G | 0.83 |
| A28U G70A U76A U80G | 0.42 |
| A28U U31A A35G A47G U76C | 0.92 |
| A28U U31A A64G A65G U78A | 0.06 |
| A28U U31A C40U A56G U69C | 0.15 |
| A28U U31A G33A | 0.23 |
| A28U U31A U60C | 0.08 |
| A28U U31A U66C | 0.45 |
| A28U U31C A64G | 0.41 |
| A28U U31C A65G A75G | 0.06 |
| A28U U31C A65G U80C | 0.11 |
| A28U U31C U67C | 0.09 |
| A28U U31G U66C U78C | 0.25 |
| A28U U41A A45G A47G U51A U72C | 0.07 |
| A28U U41A A47U U69A | 0.05 |
| A28U U41A A56G | 0.13 |
| A28U U41A C50U | 0.16 |
| A28U U41A G70U | 0.4 |

| Variant | self-cleavage |
| --- | --- |
| A28U U41A U43G A65G | 0.09 |
| A28U U41A U49C A77U | 0.2 |
| A28U U41C A47G A57U U60C C71A A75U | 0.1 |
| A28U U41C A47G U54A | 0.61 |
| A28U U41C G42C | 0.55 |
| A28U U41C G55U | 0.68 |
| A28U U41C U58A | 0.15 |
| A28U U41C U58C | 0.23 |
| A28U U41C U72C | 0.92 |
| A28U U41C U78A | 0.74 |
| A28U U41G U43C A64G | 0.34 |
| A28U U43A A64G | 0.84 |
| A28U U43A G63A A65G | 0.63 |
| A28U U43A U48C | 0.85 |
| A28U U43C A56G A75G | 0.19 |
| A28U U43C U48C U69C | 0.2 |
| A28U U43C U54A U67C | 0.39 |
| A28U U43G U72C | 0.24 |
| A28U U48A U58A U67A U72C | 0.05 |
| A28U U48C A56G | 0.18 |
| A28U U48C A56G U76A | 0.36 |
| A28U U48C A57G G63A | 0.77 |
| A28U U48C U69C | 0.23 |
| A28U U49A A65G | 0.09 |

| Variant | self-cleavage |
| --- | --- |
| A28U U49A U51A | 0.2 |
| A28U U49C A64U | 0.16 |
| A28U U49C U51C U78C | 0.17 |
| A28U U49C U58C | 0.16 |
| A28U U49C U58C A77U U78C | 0.08 |
| A28U U49C U67A | 0.09 |
| A28U U49C U67C | 0.13 |
| A28U U51A A56G | 0.25 |
| A28U U51A U72G | 1.01 |
| A28U U51C U67C U69C | 0.18 |
| A28U U51C U72G | 0.65 |
| A28U U51G U54C U80C | 1.02 |
| A28U U54A A64U | 0.3 |
| A28U U54A A65G | 0.25 |
| A28U U54C A56G U67C U78C U80A | 0.08 |
| A28U U54C U69A A77U U80A | 0.4 |
| A28U U58A U72C | 0.24 |
| A28U U58C U60C U76C | 0.28 |
| A28U U60A A64G U72G | 0.18 |
| A28U U60A U66C U69C | 0.24 |
| A28U U60A U74C | 0.86 |
| A28U U60C A64C U74C | 0.42 |
| A28U U60C A65G G73A C81U | 0.2 |
